Data as given in patent US20230365641A1 (XILIO DEVELOPMENT, published 2023).

Experiments:
[1] = molecular target: PD-1 (antigen of the ELISA and of the in vitro affinity measurement) (UniProt Q15116 fragment, limits assumed); assay: ELISA on PD-1
[2] = molecular target: T1, PD-1 shown on cells (Raji-PD-1 cells); CD3/CD28 activated human CD8+ T cells; PD-1 effector cells of the … (human, UniProt Q15116 25-288); assay: cell-based or functional assay
[3] = molecular target: T1, PD-1 shown on cells (Raji-PD-1 cells; …); assay: flow cytometry, on-cell binding to PD-1 expressing Raji cells, anti-human IgG-PE
[4] = molecular target: T1, PD-1 shown on cells (Raji-PD-1 cells; …); assay: as above; remark: listed apart in the source

B1: TC29 (Fc fusion)
heavy 1: QVQLVQSGVEVKKPGASVKVSCKASGYTFTNYYMYWVRQAPGQGLEWMGGINPSNGGTNFNEKFKNRVTLTTDSSTTTAYMELKSLQFDDTAVYYCARRDYRFDMGFDYWGQGTTVTVSSASTKGPSVFPLAPSSKSTSGGTAALGCLVKDYFPEPVTVSWNSGALTSGVHTFPAVLQSSGLYSLSSVVTVPSSSLGTQTYICNVNHKPSNTKVDKKVEPKSCDKTHTCPPCPAPELLGGPSVFLFPPKPKDTLMISRTPEVTCVVVDVSHEDPEVKFNWYVDGVEVHNAKTKPREEQYASTYRVVSVLTVLHQDWLNGKEYKCKVSNKALPAPIEKTISKAKGQPREPQVYTLPPCRDELTKNQVSLWCLVKGFYPSDIAVEWESNGQPENNYKTTPPVLDSDGSFFLYSKLTVDKSRWQQGNVFSCSVMHEALHNRFTQKSLSLSPGGGSSPPGGGSSGGGSGPAPTSSSTKKTQLQLEHLLLDLQMILNGINNYKNPKLTAMLTAKFAMPKKATELKHLQCLEEALKPLEEVLNLAQSKNFHLRPRDLISNINVIVLELKGSETTFMCEYADETATIVEFLNRWITFAQSIISTLT
heavy 2: QVQLVQSGVEVKKPGASVKVSCKASGYTFTNYYMYWVRQAPGQGLEWMGGINPSNGGTNFNEKFKNRVTLTTDSSTTTAYMELKSLQFDDTAVYYCARRDYRFDMGFDYWGQGTTVTVSSASTKGPSVFPLAPSSKSTSGGTAALGCLVKDYFPEPVTVSWNSGALTSGVHTFPAVLQSSGLYSLSSVVTVPSSSLGTQTYICNVNHKPSNTKVDKKV[not shown - human IgG1 Fc with changes]
light: EIVLTQSPATLSLSPGERATLSCRASKGVSTSGYSYLHWYQQKPGQAPRLLIYLASYLESGVPARFSGSGSGTDFTLTISSLEPEDFAVYYCQHSRDLPLTFGGGTKVEIKRTVAAPSVFIFPPSDEQLKSGTASVVCLLNNFYPREAKVQWKVDNALQSGNSQESVTEQDSKDSTYSLSSTLTLSKADYEKHKVYACEVTHQGLSSPVTKSFNRGEC
notes: also called Parental, no mask; PD-1 targeted (Pembro Fab2), unmasked TC29
Kd [1]: 0.16 nM
EC50, PD-1 Blockade RGA Assay [2]: 0.779 nM
EC50 (read off the curve) [3]: ~0.7 nM
EC50 [4]: 0.7 nM
